These results are taken from the RNAGym collection of RNA variant scans (doi:10.1093/nar/gkz1192).

Sequences and labels used below:
B1: CPEB3 Ribozyme (parent)
chain: UAACAGGGGGCCACAGCAGAAGCGUUCACGUCGCAGCCCCUGUCAGAUUCUGGUGAAUCUGCGAAUUCUGCUGUAUAUCUC

The source gives no read counts; variants with many changes may rest on few reads.

This data set covers variants of B1. Put plainly: self-cleavage, relative activity (ratio to wild type); higher = more cleavage; in vitro, sequencing. The gist of the method:
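Barcoded CPEB3 ribozyme mutants, produced by rounds of error-prone PCR, self-cleaved while being transcribed with T7 RNA polymerase for 5 hours at 37°C and during a subsequent 15 min DNase I step before EDTA was added. Sequencing of template-switched cDNA on Illumina gave cleaved and total reads, and DNA sequencing assigned barcodes to variants. Each variant's relative activity is its cleaved/total read fraction divided by the unmutated ribozyme's fraction, averaged across three batches. A variant needed a minimum of 5 reads.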
With A21G U31C U72C, the self-cleavage was determined as 0.16.
For A21G U25C U43C U69C C81U the value was 0.02; for A21G U31G U49A G52A A56G, 0.11; for A21G U41C A75G, 0.35.
For A21G G63U U80C the value was 0.77; for A21G U31C U74C, 0.32; for A21G U31C C40U U49A A57G U66A, 0.15.
Consider A21G U25G G52U, for which the self-cleavage turned out to be 0.39.
In the case of A21G U25C A35G U54C, the self-cleavage was 0.22.
For A21G U41A C50U the value was 0.47.
For A21G U25C A57G U74C the value was 0.45; for A21G U31C A56G A57G C71G U80A, 0.05.
As for A21G U26C A64G, the figure is 0.36; as for A21G G73A U74C, 1.07; as for A21G U26C A57G U76C, 0.28.
For A21G U25G U26A A35U G42A U72C, the self-cleavage amounted to 0.05.
For A21G U26A U41A U49A U72C the value was 0.04; for A21G U26C C40U U43A U49A U67C U74C, 0.05; for A21G U26C U49A A57G U66C, 0.26.
As for A21G U26C G42A U69C, the figure is 0.15.
For A21G U25A A47U the value was 0.2; for A21G U41A U43C A45U A64G U69A, 0.16.
As to A21G U25C A77U, the self-cleavage amounted to 0.33.
As for A21G U25C A28G A64G A65G, the figure is 0.19; as for A21G U25A U60C A75U, 0.12; as for A21G U25C U41C A64G, 0.29.
As for A21G U41C U60A U69G, the figure is 0.31; as for A21G U31C U58C A64U, 0.07; as for A21G U25C A28G U48A, 0.26.
As to A21G U31A U69A, the self-cleavage came out at 0.24.
As for A21G U31A A56U C71A, the figure is 0.09.
As for A21G U25A C40U, the figure is 0.11.
For A21G U41A U80A the value was 0.09; for A21G G52A U58A C59A U74A, 0.2.
For A21G U43C C44U, the self-cleavage was determined as 0.17.
With A21G U41C C44U, the self-cleavage is 0.12.
For A21G G53A A77U the value was 0.72; for A21G U31C C38A U43C A45U, 0.07; for A21G U25A A45C A47G U48C U51A A57G, 0.04.
For A21G U25A U54A A64U U78G the value was 0.12; for A21G U41C U54C A57G A65U C79U U80A, 0.11; for A21G U31A U41G, 0.1.
As for A21G U25C U41A U80C, the figure is 0.1; as for A21G U25C C34A C39A U41C A64G, 0.28.
Consider A21G G61A A64G, for which the self-cleavage worked out at 0.41.
With A21G U41A A64G, the self-cleavage turned out to be 0.15.
For A21G U31A G36A U48C U60G the value was 0.05; for A21G U31A U48C, 0.36; for A21G U25C A28G U43A U60C, 0.05.
For A21G U43A A57G U80C the value was 0.76; for A21G U31A U41A G55A, 0.05; for A21G U43A U54A, 0.71.
Consider A21G G53U A64U A65G, for which the self-cleavage is 0.12.
As for A21G U26A A35U U54C, the figure is 0.12; as for A21G U41C G63A U80A, 0.56; as for A21G U41A U60C A75G, 0.05.
Turning to A21G U26A U54C U76C, the self-cleavage came to 0.63.
As for A21G U25G A65G U72A A77U, the figure is 0.05; as for A21G U25C G30A C39A U58C, 0.13; as for A21G U25A A35U G52U U67C, 0.06.
As for A21G U41A U60C, the figure is 0.22; as for A21G U31C A77G U78C, 0.16; as for A21G U41C A45G U48C U51C, 0.
As to A21G U26C U54A, the self-cleavage turned out to be 0.29.
As for A21G U25C U60A, the figure is 0.1; as for A21G U31C A56U U60C G61U U72C, 0.06; as for A21G U26A A56G, 0.51.
As for A21G U31C A75U U80A, the figure is 0.45.
On to A21G U26C C62A, for which the self-cleavage came to 0.16.
Regarding A21G U25C C27U C38G U80C, the self-cleavage was found to be 0.05.
Turning to A21G U26A C38U U41G A47U, the self-cleavage came to 0.08.
For A21G U25C U26C U43A U58C U60C the value was 0.12; for A21G U25A U41C, 0.14.
For A21G U26C U43C U80C the value was 0.15; for A21G U25A A47G U78C, 0.25; for A21G G53U A56G A77G, 0.79.
On to A21G U41C A45G A64U U78A, for which the self-cleavage was 0.23.
As for A21G U41C A57G A64G U76C, the figure is 0.24; as for A21G U25C A28C U41G A45U U58C U78C, 0; as for A21G U41C U54C A64U U66G, 0.11.
As for A21G G53C U72C, the figure is 1.08; as for A21G U31C U41A A47U U58A, 0.06; as for A21G U25C A45G U48C U80C, 0.31.
As for A21G U31C U80C, the figure is 0.38.
As for A21G U41A A45U U69C, the self-cleavage was 0.15.
A21G U26C A35U A47G G73A U80A: the self-cleavage stood at 0.08.
For A21G U25C C39U the value was 0.17.
For A21G U31C U41A C44G A45G the value was 0.05; for A21G U31C U43C A64U C68G, 0.06; for A21G U26C A35U A45G A56G U72C U74C, 0.02.
As to A21G U25C A45G U78C, the self-cleavage turned out to be 0.14.
In the case of A21G U31C U51C U54C, the self-cleavage is 0.29.
For A21G U31C A45G A47G the value was 0.05; for A21G U25C U51A U80A, 0.15; for A21G G52A U80C, 0.92.
As for A21G U26A U49A U54C A64U, the figure is 0.11; as for A21G U26C U48C G63U, 0.12.
As for A21G G52A U60A, the figure is 0.14.
Consider A21G U41G A47G U66A U67C, for which the self-cleavage was 0.34.
As for A21G U31C U41A U54C U58C U69C, the figure is 0.
As for A21G U41A C71G, the figure is 0.1.
Take A21G U31C C38U U51A: the self-cleavage was 0.1.
For A21G U31A A45G U60C the value was 0.16; for A21G U43C A45G U72C, 0.39.
As for A21G U31C U51C, the figure is 0.17.
As for A21G U25C C37A U49C A57G U72A U80C, the figure is 0.19.
As to A21G U31C U49G A56G A75U, the self-cleavage was 0.07.
As for A21G U41A A45U A57G, the figure is 0.18; as for A21G U26C A56G U72C, 0.51; as for A21G U25C A35G U43C A56G U80A, 0.
For A21G U25C U43G C50U A64U the value was 0.07.
A21G U26A A64G U72C C79U: the self-cleavage stood at 0.19.
For A21G U26A U58C U74C U78C the value was 0.17.
For A21G U26A C59A U78C, the self-cleavage stood at 0.07.
For A21G U26C U67C A77G, the self-cleavage stood at 0.07.
As for A21G U25C A28G U43C A64G, the figure is 0.51.
For A21G U26A U51A the value was 0.41; for A21G U26C U69C, 0.25; for A21G U31C U60A C81U, 0.03.
For A21G U25A U43C A47G A56G the value was 0.07; for A21G U31C A47G A56G, 0.18; for A21G U25A U26C U41C U54C U69C, 0.09.
With A21G U26G A28G U31G, the self-cleavage was determined as 0.34.
For A21G U25C A45G A57G the value was 0.18.
A21G G52A U74C: the self-cleavage stood at 1.07.
For A21G U43C A56U U66C U78C the value was 0.08; for A21G U43C A57G, 0.24.
As for A21G U25C C68U U74C, the figure is 0.16.
For A21G U26A A45C U60A the value was 0.21.
As for A21G U26A A28U A45G, the self-cleavage came to 0.17.
As for A21G U26C U41C U54C A57C, the figure is 0.32; as for A21G U26C U54C A57G U69C, 0.04; as for A21G U41A U48C, 0.33.
For A21G U25C A56G U69A the value was 0.05; for A21G U25C C40U U54A U60A A77U, 0.14; for A21G U26A U67A, 0.25.
For A21G U26A U67A U72C the value was 0.23.
On to A21G U41C A57G, for which the self-cleavage amounted to 0.51.
For A21G U41A A65G, the self-cleavage was 0.3.
As for A21G U31C C40U U60C U78C U80C, the figure is 0.07.
For A21G U25C U26C G46C A64U the value was 0.16; for A21G U26A U72G, 0.37; for A21G U25A A35C, 0.26.
For A21G G55C U69C, the self-cleavage is 0.16.
For A21G U25A U48C U51C U72C U78A the value was 0.06; for A21G U26C U41C U43A U60A A77G, 0.1; for A21G U31G G52A U60A, 0.12.
For A21G U31C C68G the value was 0.08; for A21G U41C U51G A56G A57U U66C, 0.36.
For A21G U31A U60A U66A the value was 0.14; for A21G U41A U72C, 0.47.
Regarding A21G U25A A28U U41C, the self-cleavage came out at 0.07.
Turning to A21G U41G C68G, the self-cleavage was 0.04.
As for A21G U31C A56G, the figure is 0.21; as for A21G U31A U49A, 0.13; as for A21G G53C U72C A77G, 0.68.
For the variant A21G U41A A47G, the self-cleavage is 0.32.
With A21G U25C U51A U58C, the self-cleavage worked out at 0.24.
As for A21G U25A U41C G55U, the figure is 0.07.
Turning to A21G U41A U66A U80C, the self-cleavage worked out at 0.09.
As for A21G U25A U41A A64U U69C, the figure is 0.26.
Consider A21G U41A A57C A64G, for which the self-cleavage is 0.15.
For A21G U26C A28C the value was 0.15.
For A21G U41C U43A A64U the value was 0.16; for A21G U25C A28G U80C, 0.42; for A21G U26A U49A, 0.2.
For A21G U25C A35G C79U the value was 0.1.
